The source gives no read counts; variants with many changes may rest on few reads.
B1: LINE1-mini (parent)
chain: GGCAGAGCUCAACACAGCGUGGCAAAGUGGCUGUGGCUAGACUGCC

Variants of: B1
Experiment: self-cleavage, relative activity (ratio to wild type); higher = more cleavage; in vitro, sequencing; the parent is a self-cleaving ribozyme

Row | Variant | self-cleavage
1 | C8U G21U G29U G44C | 0.05
2 | C8U G22A A24U A41U | 0.24
3 | C8U G22A C23A G27C | 0.02
4 | C8U G22C G29C | 0.1
5 | C8U G22U C23A | 0.26
6 | C8U G22U U34G U38C C42G | 0.85
7 | C8U G27U C37A | 0
8 | C8U G27U C42G | 0.07
9 | C8U G27U G30A G44C | 0.13
10 | C8U G27U U38A G44A | 0.1
11 | C8U G29A C46A | 0.12
12 | C8U G29C C42A | 0.01
13 | C8U G29C G30U C45U | 0.34
14 | C8U G29U G35U | 0.09
15 | C8U G29U G40A | 0.36
16 | C8U G29U U32G C37G | 0.03
17 | C8U G30A G36C | 0.02
18 | C8U G30U G36U | 0.37
19 | C8U G30U U32C | 0.18
20 | C8U G30U U38C | 0.55
21 | C8U G33C A41G | 0.05
22 | C8U G33C G35U | 0.1
23 | C8U G33U C42U | 0.21
24 | C8U G36C C42U | 0.11

Row | Variant | self-cleavage
25 | C8U G36C G44U | 0.06
26 | C8U G40C U43A C45A | 0.04
27 | C8U G40U A41G | 0.47
28 | C8U G44C C45U | 0.07
29 | C8U U9A A11U | 0.05
30 | C8U U9A A12G U20G | 0.05
31 | C8U U9C A11C | 0.05
32 | C8U U9C A16C U20A G36A | 0.04
33 | C8U U9C C10U G22A U28A | 0.02
34 | C8U U9G A24U | 0.12
35 | C8U U9G C42U | 0.15
36 | C8U U9G G27C | 0.03
37 | C8U U20A G35U A41G | 0.13
38 | C8U U20C A25U U34G | 0.24
39 | C8U U20C C37U | 0.13
40 | C8U U20C U38A | 0.03
41 | C8U U20G C42U C46G | 0.11
42 | C8U U20G G35U | 0.12
43 | C8U U28A U32A | 0.49
44 | C8U U28C C37G | 0.04
45 | C8U U28C G29C G30A C31U G44U C45U | 0.11
46 | C8U U28G A39C G40U | 0.12
47 | C8U U28G C31A | 0.13
48 | C8U U32A C42U | 0.18

Row | Variant | self-cleavage
49 | C8U U32C G33U | 0.04
50 | C8U U32C G35C | 0.05
51 | C8U U32C U43A | 0.06
52 | C8U U32G G40A | 0.09
53 | C8U U32G U34C G36A | 0.01
54 | C8U U34C A41G | 0.07
55 | C8U U34G C37G C42U U43C | 0.18
56 | C8U U34G G40C | 0.08
57 | C8U U38A G40U C45U | 0.23
58 | C8U U38C C42A | 0.08
59 | U9A A11C A24U G30C C31U U34G | 0.01
60 | U9A A11C A25U | 0.01
61 | U9A A11C C37A | 0.06
62 | U9A A11G G19U A26C G33C U38G | 0.01
63 | U9A A11U A16U | 0.03
64 | U9A A11U C13A G29C G33U | 0.01
65 | U9A A12C A16G G17A | 0.02
66 | U9A A12C C23G | 0.01
67 | U9A A12C G33U G35U | 0.01
68 | U9A A12C U28A | 0.03
69 | U9A A12G C18U | 0.01
70 | U9A A12U A25G U32A | 0.04
71 | U9A A14C C37A | 0.15
72 | U9A A14C U34G | 0.07

Row | Variant | self-cleavage
73 | U9A A14G G22A G40U | 0.05
74 | U9A A14G G44U | 0.05
75 | U9A A14U A26G G30A | 0.05
76 | U9A A14U G22A | 0.09
77 | U9A A14U G33C C37A U38G G40U | 0.1
78 | U9A A14U U20A | 0.29
79 | U9A A16C G30U | 0.02
80 | U9A A16G A39G | 0.09
81 | U9A A16U A26G G36C | 0.03
82 | U9A A16U G29U G30A G33A | 0.18
83 | U9A A24C A25U U32A U34C C42U | 0.09
84 | U9A A24G G44A | 0.04
85 | U9A A24U G29A A41G G44A | 0
86 | U9A A24U G35U C37G | 0.14
87 | U9A A25C U34A G44U | 0.08
88 | U9A A25U G29A C45G | 0.04
89 | U9A A25U G29C C46U | 0.13
90 | U9A A25U G33A G35A G36A | 0.17
91 | U9A A25U U38C A41C C46U | 0.06
92 | U9A A26C G27U G29U | 0.12
93 | U9A A26G G27U C31A | 0.07
94 | U9A A26U G29A U32A | 0
95 | U9A A39U A41C | 0.03
96 | U9A A41C U43A | 0.03

Row | Variant | self-cleavage
97 | U9A C10A A12U G22C G35C | 0.03
98 | U9A C10A C13A G36A U43A | 0.03
99 | U9A C10A G27U G29C | 0.01
100 | U9A C10G A25C | 0
101 | U9A C10G C13G | 0.03
102 | U9A C10G C23U C37A | 0
103 | U9A C10G C37A C42A | 0.01
104 | U9A C10G G17U U20C G27U A41C | 0.01
105 | U9A C10G G21C A25C | 0.02
106 | U9A C10G G27C | 0.04
107 | U9A C10U A11G | 0.04
108 | U9A C10U A12G G40U C42U | 0.05
109 | U9A C10U C13G G30C G35A C37U | 0.02
110 | U9A C13A A16G C23U G36A | 0.18
111 | U9A C13A A39C | 0.17
112 | U9A C13A C45A | 0.32
113 | U9A C13A G19A | 0.02
114 | U9A C13A G21C | 0.06
115 | U9A C13G U32G C37U C45G | 0.12
116 | U9A C13U G19C U20A A24U A26G | 0.02
117 | U9A C15A G17A C18A | 0.04
118 | U9A C15A G21C C31U G40U | 0.01
119 | U9A C15A G21U A39U C45A | 0.04
120 | U9A C15A U28A | 0.33

Row | Variant | self-cleavage
121 | U9A C15G U28C | 0.07
122 | U9A C15U A16G C18A G29A U32A | 0.04
123 | U9A C15U G17U G21A A24C G29U G44U | 0.08
124 | U9A C15U G19C A24U | 0.06
125 | U9A C15U G27C | 0.23
126 | U9A C15U G30U U32C G40C G44U | 0.51
127 | U9A C15U U34G C46A | 0.07
128 | U9A C18A A24C U28C G44C | 0.12
129 | U9A C18A C23G | 0.02
130 | U9A C18A C45A | 0.07
131 | U9A C18G U34A U43C | 0.08
132 | U9A C18U G33U U43G C45U | 0.02
133 | U9A C18U G40C A41G C42U | 0.28
134 | U9A C23A C31U U34A G44C | 0.03
135 | U9A C23A G29C C31U G33A G40U | 0.04
136 | U9A C23G A24U G33A | 0.06
137 | U9A C23G C31G C37G U43A | 0.09
138 | U9A C23U G36A G44A C45U | 0.12
139 | U9A C31A G36A C46G | 0.02
140 | U9A C31A U43C | 0.17
141 | U9A C31G C37U | 0.02
142 | U9A C31U C37G C42G | 0.01
143 | U9A C37U C45U | 0.1
144 | U9A G17U C18A G21A G30A C31U | 0.01

Row | Variant | self-cleavage
145 | U9A G17U C18G | 0.02
146 | U9A G17U G21U | 0.15
147 | U9A G17U U20C A26U U43C | 0.07
148 | U9A G19A C46U | 0.08
149 | U9A G19A G30U C45G | 0.17
150 | U9A G19C G27U | 0.05
151 | U9A G19U A25C A26C | 0.03
152 | U9A G19U G27U | 0.11
153 | U9A G19U U20A | 0.04
154 | U9A G19U U20A C46U | 0.22
155 | U9A G19U U28C C42A | 0.06
156 | U9A G21A A25U U32A A39G | 0.06
157 | U9A G21A C46G | 0.14
158 | U9A G21C A26G G29U G36C | 0.01
159 | U9A G21C A39U | 0.03
160 | U9A G21U A24U A25C G35C | 0.02
161 | U9A G21U A39U | 0.02
162 | U9A G21U C45U | 0.03
163 | U9A G21U G27U G36A | 0.41
164 | U9A G22A G35U A41U U43C | 0.03
165 | U9A G22A U38A | 0.43
166 | U9A G22C G35U U38A | 0.05
167 | U9A G22U A41C | 0.13
